Experimental data taken from PubChem BioAssay (Tox21).
The shares of active, inactive and inconclusive entries below differ from those in the screen. Potencies of inconclusive entries are doubtful fits and often do not repeat. The source made the active and inactive calls. Unless noted, calls follow the shape of the dose curve; as a rule, active = well fitted curve in the direction sought with a large enough effect in the repeat runs; inconclusive = weak or mixed curves; inactive = no such curve, though single readings can be large; an effect the other way counts as inactive or inconclusive.

Experiments:
[1] = qHTS assay to identify small molecule agonists of the hypoxia (HIF-1) signaling pathway (AID 1224846; active = well fitted activation curve with a large enough effect in the signal ratio in the repeat runs, not every such curve was filed as active; inconclusive = weak or mixed curves; the % refers to the signal ratio; as to activation: % is scaled to controls: 0 for no effect and ±100 for the full control effect); settings: HRE-bla ME-180 cells, beta-lactamase ratio, 17 h; activation: at 76.8 µM (top of the series) unless noted
Method in brief: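 Agonist mode reporter screen. ME-180 cells stably expressing bla under HRE control received test compounds in DMSO for 17 hrs (37C, 5% CO2), and beta-lactamase activity was then detected with the CCF4-AM FRET substrate.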

[2] = qHTS assay to identify small molecule agonists of H2AX - cell viability counter screen (AID 1224847; calls by dose curve; also: nearly all actives have a fitted effect of over 30% in size)
Method in brief: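 Wild-type CHO-K1 cells (10% FBS medium) were plated overnight at 37C, exposed to compounds at 15 concentrations for 3 hr at 37C (0.76% DMSO final), and viability was read as CellTiter-Glo luminescence after 30 min at room temperature.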

[3] = qHTS assay to identify small molecule antagonists of the estrogen related receptor (ERR) signaling pathway from Tox21 library (AID 1224848); also: nearly all actives have a fitted effect of over 50% in size
Method in brief: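 Compounds dissolved in DMSO are pin-transferred onto ERR reporter cells (2,000 per well) that have settled for 6 h at 37 C. Plates then incubate 18 h at 37 C before ONE-Glo luciferase reagent and a luminescence read 30 min later.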

[4] = qHTS RealTime-Glo MT Cell Viability Assay in HepG2 cells - 24 hour (AID 1224867); also: nearly all actives have a fitted effect of over 50% in size
Method in brief: (§1)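 Viability was tracked continuously by NanoLuc luminescence from prosubstrate reduced by living HepG2 cells, at successive time points over 40 h of compound exposure. Cells with reagent were preincubated 5 h at 37 °C before compound addition.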

[5] = qHTS RealTime-Glo MT Cell Viability Assay in HEK293 cells - 32 hour (AID 1224868); also: nearly all actives have a fitted effect of over 50% in size
Method in brief: (§2)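 Viability tracked continuously by luminescence as live cells reduce a prosubstrate for NanoLuc; HEK293 cells preincubated 5 h, compound-treated at 37 C, and read at 0, 8, 16, 24, 32 and 40 h.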

[6] = qHTS RealTime-Glo MT Cell Viability Assay in HEK293 cells - 16 hour (AID 1224872); also: nearly all actives have a fitted effect of over 50% in size
Method in brief: as §2

[7] = qHTS RealTime-Glo MT Cell Viability Assay in HepG2 cells - 8 hour (AID 1224873); also: nearly all actives have a fitted effect of over 55% in size
Method in brief: (§3)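 HepG2 cells (600/well) mixed with RealTime-Glo MT reagent, settled 5 h at 37 C/5% CO2 before compound addition. Nonlytic NanoLuc luminescence from viable-cell prosubstrate reduction read repeatedly during 40 h treatment at 37 C.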

[8] = qHTS RealTime-Glo MT Cell Viability Assay in HEK293 cells - 40 hour (AID 1224874); settings: RealTime-Glo luminescence; max response: hits give low values; also: nearly all actives have a fitted effect of over 50% in size; as to max response: % is scaled to controls: 0 for no effect and ±100 for the full control effect
Method in brief: (§4)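 600 HEK293 cells per well, dispensed already mixed with RealTime-Glo MT reagents. Compound dosing came 5 h later. The same wells were read for luminescence at 0, 8, 16, 24, 32 and 40 h of exposure at 37 C.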

[9] = qHTS RealTime-Glo MT Cell Viability Assay in HepG2 cells - 32 hour (AID 1224877); also: nearly all actives have a fitted effect of over 55% in size
Method in brief: as §1

[10] = A CellTox Green Cytotoxicity Assay to monitor cytotoxicity in HepG2 cells - 24 hour (AID 1224878); also: nearly all actives have a fitted effect of over 45% in size
Method in brief: (§5)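 First, HepG2 cells (600/well) mixed with reagent were plated; second, after 5 h at 37 C they received compounds via pintool; third, fluorescence was measured at 0 h through 40 h at 8 h intervals.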

[11] = A CellTox Green Cytotoxicity Assay to monitor cytotoxicity in HepG2 cells - 40 hour (AID 1224879); also: nearly all actives have a fitted effect of over 40% in size
Method in brief: as §5

[12] = qHTS RealTime-Glo MT Cell Viability Assay in HEK293 cells - 0 hour (AID 1224880); also: nearly all actives have a fitted effect of over 45% in size
Method in brief: as §4

[13] = qHTS RealTime-Glo MT Cell Viability Assay in HepG2 cells - 40 hour (AID 1224870); also: nearly all actives have a fitted effect of over 50% in size
Method in brief: as §3

[14] = A CellTox Green Cytotoxicity Assay to monitor cytotoxicity in HEK293 cells - 32 hour (AID 1224881); also: nearly all actives have a fitted effect of over 40% in size
Method in brief: (§6)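 Dead-cell fluorescence measured kinetically: asymmetric cyanine dye, HEK293, 600 cells/well, 5 h settle, 23 nL cpd/DMSO, 37 C, reads 0–40 h every 8 h.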

[15] = A CellTox Green Cytotoxicity Assay to monitor cytotoxicity in HEK293 cells - 40 hour (AID 1224871); also: nearly all actives have a fitted effect of over 45% in size
Method in brief: as §6

[16] = A CellTox Green Cytotoxicity Assay to monitor cytotoxicity in HEK293 cells - 24 hour (AID 1224875); also: nearly all actives have a fitted effect of over 45% in size
Method in brief: as §6

[17] = A CellTox Green Cytotoxicity Assay to monitor cytotoxicity in HepG2 cells - 16 hour (AID 1224876); also: nearly all actives have a fitted effect of over 45% in size
Method in brief: as §5
Potency is read from the fitted curve at half-maximal effect; tags tell the direction and shape of the fitted curve or compound fluorescence and quenching.

## O=[N+]([O-])c1cc(C2CCCCC2)c(O)c([N+](=O)[O-])c1
[1]
  Potency: inconclusive: 48.9 µM [falling, partial curve]
[2]
  Potency: active: 11.3 µM
[3]
  Potency: inconclusive: 1.93 µM [inhibitor, full curve, poor fit]
[4]
  Potency: inconclusive: 27.5 µM [falling, partial curve]
[5]
  Potency: active: 12.3 µM
[6]
  Potency: active: 27.5 µM
[7]
  Potency: inconclusive: 43.5 µM [falling, partial curve]
[8]
  Potency: active: 12.3 µM
[9]
  Potency: inconclusive: 24.5 µM [cytotoxic, partial curve]
[10]
  Potency: inconclusive: 54.8 µM [activator, single point]
[11]
  Potency: inconclusive: 54.8 µM [activator, single point]
[12]
  Potency: inconclusive: 43.5 µM [falling, partial curve]

## CCCCCCCCCCCC(=O)OC
[1]
  Potency: inactive

## Clc1cc(Cl)nc(Cl)n1
[1]
  Potency: inconclusive: 35.1 µM [falling, partial curve]
[2]
  Potency: inactive
[5]
  Potency: inconclusive: 49.6 µM [rising, partial curve]
[8]
  Potency: inconclusive: 35.1 µM [rising, partial curve, poor fit]

## CCCCCCCCCc1ccc(OCCOCCO)cc1
[1]
  Potency: inconclusive: 23 µM [falling, single point]
[2]
  Potency: active: 37.6 µM
[4]
  Potency: inconclusive: 18.3 µM [falling, partial curve]
[13]
  Potency: inconclusive: 20.5 µM [falling, partial curve, poor fit]
[6]
  Potency: active: 1.45 µM
[7]
  Potency: inconclusive: 18.3 µM [falling, single point]
[9]
  Potency: inconclusive: 18.3 µM [cytotoxic, single point]

## CN1C(=O)N(c2ccccc2Br)Cc2cnc(Nc3ccc4c(c3)OCC(CO)O4)nc21 (stereo not given)
[1]
  Potency: inconclusive: 27.5 µM [falling, partial curve, poor fit]
[3]
  Potency: active: 8.63 µM
[4]
  Potency: inconclusive: 19.5 µM [falling, partial curve]
[5]
  Potency: active: 6.16 µM
[13]
  Potency: inconclusive: 15.5 µM [falling, full curve]
[6]
  Potency: active: 6.92 µM
[7]
  Potency: inconclusive: 24.5 µM [falling, partial curve]
[9]
  Potency: inconclusive: 17.4 µM [cytotoxic, partial curve]
[10]
  Potency: inconclusive: 6.16 µM [activator, full curve, poor fit]
[12]
  Potency: inactive
[14]
  Potency: inactive

## Cc1cccc(N(C)C(=S)Oc2ccc3c(c2)CCC3)c1
[1]
  Potency: inactive
[2]
  Potency: inconclusive: 34.8 µM [cytotoxic, partial curve, poor fit]
[3]
  Potency: inconclusive: 26.6 µM [inhibitor, partial curve]
[8]
  max response: inactive: -16.2%

## CCCC(CC)CCCCCCCN (stereo not given)
[1]
  Potency: inconclusive: 56.3 µM
[2]
  Potency: active: 103 µM
[3]
  Potency: inconclusive: 62.6 µM [inhibitor, partial curve, poor fit]
[5]
  Potency: inconclusive: 56.3 µM [cytotoxic, partial curve]
[15]
  Potency: active: 50.2 µM
[6]
  Potency: inconclusive: 56.3 µM [cytotoxic, partial curve]
[16]
  Potency: inconclusive: 39.9 µM [activator, partial curve, poor fit]
[17]
  Potency: inconclusive: 50.2 µM [activator, single point]
[10]
  Potency: inconclusive: 56.3 µM [activator, single point]
[11]
  Potency: inconclusive: 56.3 µM [activator, single point]
[12]
  Potency: inconclusive: 39.9 µM [rising, partial curve]

## C[C@@]12C(=O)OC(=O)[C@]1(C)C1CCC2O1
[1]
  Potency: inconclusive: 4.25 µM [falling, full curve]
[2]
  Potency: inconclusive: 22 µM [rising, partial curve]
[7]
  Potency: inconclusive: 23.9 µM [falling, partial curve]
[8]
  Potency: active: 6.01 µM
[9]
  Potency: active: 1.51 µM
[10]
  Potency: active: 19 µM

## CCCCCCCCC(CCCCCC)C(=O)O (stereo not given)
[1]
  Potency: inconclusive: 43.6 µM [falling, partial curve]
[2]
  Potency: inconclusive: 50.5 µM [cytotoxic, full curve]
[3]
  Potency: inconclusive: 38.6 µM [inhibitor]
[12]
  Potency: inconclusive: 3.89 µM [rising, full curve]

## CC/C=C\C/C=C\C/C=C\CCCCCCCC(=O)O
[1]
  Potency: inconclusive: 61.7 µM [falling, single point]

## CC1(CN2CCC(n3c(=O)[nH]c4ccccc43)CC2)OCc2ccccc2-n2cccc21 (stereo not given)
[1]
  Potency: inconclusive: 26.8 µM
[2]
  Potency: inconclusive: 55.2 µM [cytotoxic, single point]
[4]
  Potency: inconclusive: 21.3 µM [falling, partial curve, poor fit]
[15]
  Potency: inconclusive: 23.9 µM [activator, single point]
[6]
  Potency: active: 10.7 µM
[7]
  Potency: inconclusive: 21.3 µM [falling, partial curve]
[9]
  Potency: inconclusive: 23.9 µM [cytotoxic, partial curve, poor fit]
[11]
  Potency: inconclusive: 23.9 µM [activator, single point]
[14]
  Potency: inconclusive: 21.3 µM [activator, partial curve, poor fit]
